# Several values for one entry are separate records, joined by “and”; a condition that tells them apart may be missing. Equal entries are not always repeated. The campaign covered roughly 270,000 compounds. About 620 (0.23%) were called active. The inconclusive results got no clear call from the source; some entries with a clear call stand among them for comparison. The call rests on the fitted dose curve; in most records, active means well fitted inhibition curve with a large enough effect in the polarisation, with a control signal flat (not every such curve was filed as active); inconclusive means small, poorly fitted or top-dose-only effect, or effect the other way, or a change in a side signal; inactive means no such curve, though single readings can be large or run the other way; the % refers to the polarisation. Potencies of inconclusive entries are doubtful fits and often do not repeat. A note “side channel” means that the fit belongs to a control or component signal, not to the main read-out.
# Biological target: Menin (Homo sapiens) (UniProt O00255)
# Test: qHTS Assay for Inhibitors Targeting the Menin-MLL Interaction in MLL Related Leukemias: Competition With Texas Red Labeled MLL-derived Mutant Peptide; on FP activity change, negative = inhibition: % of control where 0% means no effect
# Conditions: fluorescence polarization; FP activity change, negative = inhibition: at 61.6 µM (top of the series)
# Potency means the concentration at half of the fitted maximal effect; tags describe the fitted curve by direction and shape or compound fluorescence and quenching.
# UniProt O00255, sequence (O00255 whole entry, looked up): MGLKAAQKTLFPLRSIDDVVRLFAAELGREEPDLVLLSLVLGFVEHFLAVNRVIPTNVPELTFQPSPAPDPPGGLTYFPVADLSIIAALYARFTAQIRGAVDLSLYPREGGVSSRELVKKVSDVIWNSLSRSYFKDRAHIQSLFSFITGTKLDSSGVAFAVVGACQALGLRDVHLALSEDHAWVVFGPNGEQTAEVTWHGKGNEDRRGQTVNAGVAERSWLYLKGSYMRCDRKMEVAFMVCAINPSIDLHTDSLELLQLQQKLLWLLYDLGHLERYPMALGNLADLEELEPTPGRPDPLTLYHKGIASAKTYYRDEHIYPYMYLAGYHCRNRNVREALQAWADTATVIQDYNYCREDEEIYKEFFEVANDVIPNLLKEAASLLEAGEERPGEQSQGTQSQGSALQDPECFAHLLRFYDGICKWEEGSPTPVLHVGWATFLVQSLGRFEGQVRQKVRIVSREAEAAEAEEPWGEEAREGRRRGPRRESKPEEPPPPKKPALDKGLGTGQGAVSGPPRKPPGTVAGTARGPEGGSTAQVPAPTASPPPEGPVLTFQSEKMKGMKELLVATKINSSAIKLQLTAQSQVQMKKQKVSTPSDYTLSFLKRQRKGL
SMILES,Potency,"FP activity change, negative = inhibition"
O=C(Nc1ccc(S(=O)(=O)Nc2nccs2)cc1)c1ccc(F)c(S(=O)(=O)N2CCOCC2)c1,"inconclusive: 14.1 µM [quencher, side channel, partial curve]",–
COc1ccc(-c2csc3ncnc(NCCN4CCOCC4)c23)cc1,"inconclusive: 39.8 µM [fluorescent, side channel, single point]",–
Cc1csc(NC(=O)CSc2nnc(C)s2)n1,–,inactive: 1.76%
Cc1cc(C)nc(SCC(=O)c2ccc(O)c(O)c2)n1,"inconclusive: 2.82 µM [inhibitor, full curve]",–
O=C(/C=C/c1ccco1)NC(=S)Nc1ccccc1N1CCCC1,"inconclusive: 12.6 µM [quencher, side channel, partial curve]",–
COc1cc(CNc2cccc3[nH]c(C(F)(F)F)nc23)cc(OC)c1,"inconclusive: 8.91 µM [quencher, side channel, partial curve]",–
Cn1c2ccccc2c2cc(/C=N/NC(=O)c3cc(O)cc(O)c3)ccc21,"inconclusive: 39.8 µM [quencher, side channel, single point]",–
COc1cccc(NC(=O)CSc2ccc3nnc(-c4ccncc4)n3n2)c1,–,inactive: -9.32%
O=c1cc(-c2ccccc2)nc(Cc2c(Cl)cccc2Cl)[nH]1,"inconclusive: 11.2 µM [fluorescent, side channel, partial curve]",–
CCN(Cc1nc(-c2ccccc2)no1)C(=O)c1ccoc1C,"inconclusive: 17.8 µM [inhibitor, partial curve]",–
O=C(CN1C(=O)S/C(=C\c2ccc(F)cc2)C1=O)Nc1cccc(S(=O)(=O)NCc2ccco2)c1,"inconclusive: 35.5 µM [fluorescent, side channel, single point]",–
O=[N+]([O-])c1ccc(Nc2ccccc2)nc1,"inconclusive: 25.1 µM [quencher, side channel, single point]",–
CCOc1ccccc1NC(=S)NC(=O)CCCOc1ccc(Cl)cc1Cl,"inconclusive: 25.1 µM [quencher, side channel, single point]",–
CCN(CC)c1ccc(/C=N/N2C(=O)c3ccccc3C2=O)c(O)c1,"inconclusive: 3.55 µM [quencher, side channel, single point]",–
CC1=CC2=NC(=O)/C(=C\c3cccn3CCOc3ccccc3)C(=N)N2O1,"inconclusive: 22.4 µM [quencher, side channel, partial curve, poor fit]",–
CSc1nc2nc(C)cc(-c3ccccc3)n2n1,–,inactive: 4.46%
COc1cc(/C=C/c2ccc3cccc(OC)c3n2)c(OC(C)=O)c([N+](=O)[O-])c1,"inconclusive: 15.8 µM [quencher, side channel, partial curve]",–
O=C(O)c1ccc(N2CCN(C(c3ccccc3)c3ccccc3)CC2)c([N+](=O)[O-])c1,"inconclusive: 31.6 µM [quencher, side channel, partial curve]",–
O=C(CNC(=O)c1ccccc1F)N/N=C/c1cc(Br)ccc1OC(=O)/C=C/c1ccco1,–,inactive: 17%

SMILES,Potency,"FP activity change, negative = inhibition"
CCC(C)N(C)C(=O)c1cc2ccccc2c(-c2ccccc2Cl)n1 (stereo unspecified),"inconclusive: 11.2 µM [fluorescent, side channel, partial curve] and inconclusive: 7.94 µM [fluorescent, side channel, partial curve]",–
COc1cccc(NC(=S)NCc2ccc3c(c2)cc(C)n3C)c1,–,inactive: -9.26%
O=C(Nc1nnc(CC(c2ccccc2)c2ccccc2)s1)c1ccco1,–,inactive: -0.889%
COc1ccc(CNC(C)C23CC4CC(CC(C4)C2)C3)c(OC)c1OC (stereo unspecified),"inconclusive: 39.8 µM [inhibitor, single point]",–
Cn1c(=O)c2[nH]c(Nc3ccccc3)nc2n(C)c1=O,–,inactive: 6.48%
Cc1ccc(NC(=O)c2cc(-c3ccco3)nc3ccccc23)cc1S(=O)(=O)N1CCOCC1,"inconclusive: 7.08 µM [quencher, side channel, partial curve]",–
Cc1ccc(-c2nc(CS(=O)(=O)CC(=O)NC3CCCCC3C)c(C)o2)cc1 (stereo unspecified),"inconclusive: 4.47 µM [fluorescent, side channel, full curve]",–
COc1ccc(C(=O)Nc2c(-c3ccccc3)nc3ccccn23)c(OC)c1,"inconclusive: 2 µM [inhibitor, partial curve]",–
CCOc1cc(/C=N/Nc2nc(-c3cccc(S(=O)(=O)N4CCCC4)c3)cs2)ccc1O,"inconclusive: 10 µM [quencher, side channel, partial curve]",–
O=C(CN(C(=O)CCC(=O)Nc1nccs1)c1cccc(F)c1)NCc1ccccc1,"inconclusive: 22.4 µM [fluorescent, side channel, single point]",–
Cc1ccc(NC(=O)c2cc(=O)c3ccccc3o2)cc1S(=O)(=O)N1CCCCC1,"inconclusive: 12.6 µM [quencher, side channel, partial curve]",–
COC(=O)NC(c1ccco1)[C@@]1(C(=O)OC)CCCC1=O (stereo partly specified),–,inactive: -6.08% [at 11.7 µM]
Cc1ccc(C)c(OCCCC(=O)Nc2ccccc2C(N)=O)c1,"inconclusive: 14.1 µM [quencher, side channel, partial curve]",–
Cc1nn(C(=O)c2cccc([N+](=O)[O-])c2)c(C)c1Cl,"inconclusive: 1.41 µM [quencher, side channel, full curve, poor fit]",–
COc1ccc(C(=O)Nc2ccc3c(c2)nc(CCNC(=O)c2ccco2)n3C)cc1,"inconclusive: 28.2 µM [fluorescent, side channel, single point]",–
NS(=O)(=O)c1ccc(NC(=S)Nc2ccn(Cc3cccc4ccccc34)n2)cc1,"inconclusive: 39.8 µM [inhibitor, single point]",–
COc1cc2c(cc1C(F)(F)F)N(C(=O)Nc1cc(F)cc(-c3cccnc3)c1)CC2,"inconclusive: 15.8 µM [quencher, side channel, full curve] and inconclusive: 3.55 µM [quencher, side channel, full curve]",–
O=[N+]([O-])c1ccc(S(=O)(=O)NCCS(=O)(=O)N2CCN(c3ccccc3)CC2)cc1,"inconclusive: 8.91 µM [quencher, side channel, partial curve]",–
Clc1ccc(CN2C3=NCCCN3c3ccccc32)cc1,–,inactive: -12.2%

SMILES,Potency,"FP activity change, negative = inhibition"
Cc1ccc([N+](=O)[O-])c(OCCn2cnc3ccccc32)c1,–,inactive: 2.16%
Cc1ccc(CSc2nnc(C(F)(F)F)n2Cc2ccc(F)cc2)cc1,"inconclusive: 3.55 µM [fluorescent, side channel, partial curve, poor fit]",–
CC#CCN1c2ccccc2[C@]23C[C@@H](C(=O)OC)N(C(=O)c4cccs4)C2=NC(C(=O)OC)=C(C(=O)OC)[C@H]13,–,inactive: -4.68% [at 11.7 µM]
Cc1ccc([S+](=O)([O-])N(c2ccccc2)[S+](=O)([O-])C(F)(F)F)cc1,–,inactive: -7.03%
COC(=O)c1ccc2c(=O)n(CC3CCCO3)c(SCC(=O)Nc3ccccc3Cl)nc2c1 (stereo unspecified),"inconclusive: 3.98 µM [fluorescent, side channel, full curve, poor fit]",–
C=CCCC(=O)Nc1nc(C)c(-c2csc(Nc3cc(Cl)ccc3OC)n2)s1,"inconclusive: 10 µM [quencher, side channel, partial curve]",–
COC(=O)c1cn(C(=O)c2ccc(C)cc2)c2ccccc12,"inconclusive: 12.6 µM [fluorescent, side channel, partial curve]",–
COc1ccc(C(=O)Nc2ccc3oc(Cc4ccc(Cl)cc4)nc3c2)cc1OC,"inconclusive: 28.2 µM [quencher, side channel, partial curve]",–
CCN(C(=O)Cc1ccc(Br)cc1)C1CCCCC1,"inconclusive: 35.5 µM [fluorescent, side channel, partial curve]",–
C=CCn1c(N)c(C(=O)Nc2cccc(C)c2)c2nc3ccccc3nc21,"inconclusive: 11.2 µM [quencher, side channel, partial curve]",–
Cc1cc(NS(=O)(=O)c2ccc(Nc3nc(-c4ccc(O)cc4)cs3)cc2)no1,"inconclusive: 35.5 µM [quencher, side channel, single point]",–
Cc1ccc(NC(=O)CN2C(=O)S/C(=C\C(=O)Nc3ccc(Cl)cc3)C2=O)cc1,"inconclusive: 3.16 µM [quencher, side channel, full curve]",–
NC(=NCCc1c[nH]c2ccccc12)NS(=O)(=O)c1ccc2ccccc2c1,"inconclusive: 4.47 µM [quencher, side channel, single point]",–
Cc1[nH]n(-c2ccccc2)c(=O)c1N=Nc1ccc(C(=O)O)cc1,"inconclusive: 17.8 µM [quencher, side channel, partial curve]",–
Cc1ccccc1-n1c(=O)c2c(n3cnnc13)-c1ccccc1CC21CCCCC1,"inconclusive: 11.2 µM [inhibitor, partial curve]",–
COc1ccccc1CNc1nc(-c2cccc(NS(C)(=O)=O)c2)nc2ccccc12,"inconclusive: 22.4 µM [quencher, side channel, partial curve]",–
CN(C)c1ccc(/C=C2\SC(=S)N(Nc3ncc(C(F)(F)F)cc3Cl)C2=O)cc1,"inconclusive: 31.6 µM [fluorescent, side channel, partial curve]",–
COc1ccccc1C(=O)NNC(=S)NC(=O)c1sc2ccccc2c1Cl,"inconclusive: 20 µM [quencher, side channel, single point]",–

# From PubChem BioAssay AID1768 (National Center for Advancing Translational Sciences (NCATS), 2009)
